# Substitutions are numbered along the chain they refer to; changes in the protein carry UniProt numbers. This is one part of the list.
# T1: RBFOX1 RRM (Homo sapiens, UniProt Q9NWB1 109-208)
# T1 sequence: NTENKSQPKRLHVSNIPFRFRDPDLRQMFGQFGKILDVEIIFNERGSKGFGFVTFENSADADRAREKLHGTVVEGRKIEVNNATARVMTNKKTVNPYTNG
# B1: GGCUACG (DNA:RNA)
# RNA: GGGAGACCGGAAUUCAGAUUGUCCGGCUACGUUAAAUCCCGUCGUAGCCACCA
# DNA 1: CAATCTGAATTCCGGTCTCCC
# DNA 2: TGGTGGCTACGACGGGATT
# B2: UCAACCG (DNA:RNA)
# RNA: B1 RNA with G25U, G26C, C27A, U28A, A29C
# DNA 1: CAATCTGAATTCCGGTCTCCC
# DNA 2: TGGTGGCTACGACGGGATT
# B3: GGCCGCC (DNA:RNA)
# RNA: B1 RNA with U28C, A29G, G31C
# DNA 1: CAATCTGAATTCCGGTCTCCC
# DNA 2: TGGTGGCTACGACGGGATT
# B4: GGCAAGA (DNA:RNA)
# RNA: B1 RNA with U28A, C30G, G31A
# DNA 1: CAATCTGAATTCCGGTCTCCC
# DNA 2: TGGTGGCTACGACGGGATT
# B5: GCUACCU (DNA:RNA)
# RNA: B1 RNA with G26C, C27U, U28A, A29C, G31U
# DNA 1: CAATCTGAATTCCGGTCTCCC
# DNA 2: TGGTGGCTACGACGGGATT
# B6: CACGUGU (DNA:RNA)
# RNA: B1 RNA with G25C, G26A, U28G, A29U, C30G, G31U
# DNA 1: CAATCTGAATTCCGGTCTCCC
# DNA 2: TGGTGGCTACGACGGGATT
# B7: UUUGCAA (DNA:RNA)
# RNA: GGGAGACCGGAAUUCAGAUUGUCCUUUGCAAUUAAAUCCCGUCGUAGCCACCA
# DNA 1: CAATCTGAATTCCGGTCTCCC
# DNA 2: TGGTGGCTACGACGGGATT
# B8: GUAUGGG (DNA:RNA)
# RNA: B1 RNA with G26U, C27A, A29G, C30G
# DNA 1: CAATCTGAATTCCGGTCTCCC
# DNA 2: TGGTGGCTACGACGGGATT
# B9: GUUCGGC (DNA:RNA)
# RNA: B7 RNA with U25G, G28C, C29G, A30G, A31C
# DNA 1: CAATCTGAATTCCGGTCTCCC
# DNA 2: TGGTGGCTACGACGGGATT
# B10: UUAGUGA (DNA:RNA)
# RNA: B7 RNA with U27A, C29U, A30G
# DNA 1: CAATCTGAATTCCGGTCTCCC
# DNA 2: TGGTGGCTACGACGGGATT
# B11: CUUCUGG (DNA:RNA)
# RNA: B7 RNA with U25C, G28C, C29U, A30G, A31G
# DNA 1: CAATCTGAATTCCGGTCTCCC
# DNA 2: TGGTGGCTACGACGGGATT
# B12: ACAAUCA (DNA:RNA)
# RNA: B1 RNA with G25A, G26C, C27A, U28A, A29U, G31A
# DNA 1: CAATCTGAATTCCGGTCTCCC
# DNA 2: TGGTGGCTACGACGGGATT
# B13: CAUCACC (DNA:RNA)
# RNA: B1 RNA with G25C, G26A, C27U, U28C, G31C
# DNA 1: CAATCTGAATTCCGGTCTCCC
# DNA 2: TGGTGGCTACGACGGGATT
# B14: GCUUAAG (DNA:RNA)
# RNA: B1 RNA with G26C, C27U, C30A
# DNA 1: CAATCTGAATTCCGGTCTCCC
# DNA 2: TGGTGGCTACGACGGGATT
# B15: GAAGCGU (DNA:RNA)
# RNA: B7 RNA with U25G, U26A, U27A, A30G, A31U
# DNA 1: CAATCTGAATTCCGGTCTCCC
# DNA 2: TGGTGGCTACGACGGGATT
# B16: CCCAUGG (DNA:RNA)
# RNA: B1 RNA with G25C, G26C, U28A, A29U, C30G
# DNA 1: CAATCTGAATTCCGGTCTCCC
# DNA 2: TGGTGGCTACGACGGGATT
# B17: GACUGGA (DNA:RNA)
# RNA: B1 RNA with G26A, A29G, C30G, G31A
# DNA 1: CAATCTGAATTCCGGTCTCCC
# DNA 2: TGGTGGCTACGACGGGATT
# B18: AGUGCGU (DNA:RNA)
# RNA: B7 RNA with U25A, U26G, A30G, A31U
# DNA 1: CAATCTGAATTCCGGTCTCCC
# DNA 2: TGGTGGCTACGACGGGATT
# B19: CACUACU (DNA:RNA)
# RNA: B1 RNA with G25C, G26A, G31U
# DNA 1: CAATCTGAATTCCGGTCTCCC
# DNA 2: TGGTGGCTACGACGGGATT
# B20: CACCGAU (DNA:RNA)
# RNA: B1 RNA with G25C, G26A, U28C, A29G, C30A, G31U
# DNA 1: CAATCTGAATTCCGGTCTCCC
# DNA 2: TGGTGGCTACGACGGGATT
# B21: GCCUCAU (DNA:RNA)
# RNA: B1 RNA with G26C, A29C, C30A, G31U
# DNA 1: CAATCTGAATTCCGGTCTCCC
# DNA 2: TGGTGGCTACGACGGGATT
# B22: AACCCCU (DNA:RNA)
# RNA: B1 RNA with G25A, G26A, U28C, A29C, G31U
# DNA 1: CAATCTGAATTCCGGTCTCCC
# DNA 2: TGGTGGCTACGACGGGATT
# B23: AACGGAC (DNA:RNA)
# RNA: B7 RNA with U25A, U26A, U27C, C29G, A31C
# DNA 1: CAATCTGAATTCCGGTCTCCC
# DNA 2: TGGTGGCTACGACGGGATT
# B24: CCGUGCA (DNA:RNA)
# RNA: B1 RNA with G25C, G26C, C27G, A29G, G31A
# DNA 1: CAATCTGAATTCCGGTCTCCC
# DNA 2: TGGTGGCTACGACGGGATT
# B25: AGCAAGG (DNA:RNA)
# RNA: B1 RNA with G25A, U28A, C30G
# DNA 1: CAATCTGAATTCCGGTCTCCC
# DNA 2: TGGTGGCTACGACGGGATT
# B26: UUUUAAU (DNA:RNA)
# RNA: B7 RNA with G28U, C29A, A31U
# DNA 1: CAATCTGAATTCCGGTCTCCC
# DNA 2: TGGTGGCTACGACGGGATT
# B27: ACAUUCG (DNA:RNA)
# RNA: B1 RNA with G25A, G26C, C27A, A29U
# DNA 1: CAATCTGAATTCCGGTCTCCC
# DNA 2: TGGTGGCTACGACGGGATT
# B28: CGGUGAC (DNA:RNA)
# RNA: B1 RNA with G25C, C27G, A29G, C30A, G31C
# DNA 1: CAATCTGAATTCCGGTCTCCC
# DNA 2: TGGTGGCTACGACGGGATT
# B29: UUUUUUC (DNA:RNA)
# RNA: B7 RNA with G28U, C29U, A30U, A31C
# DNA 1: CAATCTGAATTCCGGTCTCCC
# DNA 2: TGGTGGCTACGACGGGATT
# B30: UGUCGGC (DNA:RNA)
# RNA: B7 RNA with U26G, G28C, C29G, A30G, A31C
# DNA 1: CAATCTGAATTCCGGTCTCCC
# DNA 2: TGGTGGCTACGACGGGATT
# B31: GGUCGUC (DNA:RNA)
# RNA: B1 RNA with C27U, U28C, A29G, C30U, G31C
# DNA 1: CAATCTGAATTCCGGTCTCCC
# DNA 2: TGGTGGCTACGACGGGATT
# Target: T1, RBFOX1 RRM
# Test: EMSA; HiTS-Eq, 1 nM pool, 10 min; buffer printed only for the single-RNA assays: 10 mM Tris pH 7.5, 150 mM NaCl, 3.4 mM EDTA, 0.001% NP-40, 30 C
# Conditions: tags: His6 N-terminal (pET28a); label: 5' 32P
# Summary of the method: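 Relative association constants, normalised to the cognate motif, were derived by comparing read counts of each RNA species with those of the control reaction. The RNA sequenced was the free fraction, separated by 8% native PAGE after a 10 min equilibration in 50 µL of 1 nM 5′-radiolabelled RNA (7 randomized nucleotides) with increasing concentrations of purified wild-type or mutant RbFox RRM.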
row,Binder,binding signal
1,B1,0.0271 KA relative to UGCAUGU
2,B2,0.000694 KA relative to UGCAUGU
3,B3,0.0087 KA relative to UGCAUGU
4,B4,0.0132 KA relative to UGCAUGU
5,B5,0.00981 KA relative to UGCAUGU
6,B6,0.0106 KA relative to UGCAUGU
7,B7,0.0114 KA relative to UGCAUGU
8,B8,0.00944 KA relative to UGCAUGU
9,B9,0.0143 KA relative to UGCAUGU
10,B10,0.00774 KA relative to UGCAUGU
11,B11,0.0102 KA relative to UGCAUGU
12,B12,0.000916 KA relative to UGCAUGU
13,B13,0.00162 KA relative to UGCAUGU
14,B14,0.00928 KA relative to UGCAUGU
15,B15,0.0133 KA relative to UGCAUGU
16,B16,0.00694 KA relative to UGCAUGU

row,Binder,binding signal
1,B17,0.0138 KA relative to UGCAUGU
2,B18,0.0174 KA relative to UGCAUGU
3,B19,0.000605 KA relative to UGCAUGU
4,B20,0.00369 KA relative to UGCAUGU
5,B21,0.00777 KA relative to UGCAUGU
6,B22,0.00266 KA relative to UGCAUGU
7,B23,0.0135 KA relative to UGCAUGU
8,B24,0.017 KA relative to UGCAUGU
9,B25,0.0132 KA relative to UGCAUGU
10,B26,0.00803 KA relative to UGCAUGU
11,B27,0.00784 KA relative to UGCAUGU
12,B28,0.00761 KA relative to UGCAUGU
13,B29,0.0224 KA relative to UGCAUGU
14,B30,0.014 KA relative to UGCAUGU
15,B31,0.00991 KA relative to UGCAUGU

# From PMC9911399, “Two distinct binding modes provide the RNA-binding protein RbFox with extraordinary sequence specificity”
